Measured values taken from paper PMC5052711.
Some values that stand alone complete this part of the results.

B1: hTRPA1: N747Q (protein)
parent chain: MKRSLRKMWRPGEKKEPQGVVYEDVPDDTEDFKESLKVVFEGSAYGLQNFNKQKKLKRCDDMDTFFLHYAAAEGQIELMEKITRDSSLEVLHEMDDYGNTPLHCAVEKNQIESVKFLLSRGANPNLRNFNMMAPLHIAVQGMNNEVMKVLLEHRTIDVNLEGENGNTAVIIACTTNNSEALQILLKKGAKPCKSNKWGCFPIHQAAFSGSKECMEIILRFGEEHGYSRQLHINFMNNGKATPLHLAVQNGDLEMIKMCLDNGAQIDPVEKGRCTAIHFAATQGATEIVKLMISSYSGSVDIVNTTDGCHETMLHRASLFDHHELADYLISVGADINKIDSEGRSPLILATASASWNIVNLLLSKGAQVDIKDNFGRNFLHLTVQQPYGLKNLRPEFMQMQQIKELVMDEDNDGCTPLHYACRQGGPGSVNNLLGFNVSIHSKSKDKKSPLHFAASYGRINTCQRLLQDISDTRLLNEGDLHGMTPLHLAAKNGHDKVVQLLLKKGALFLSDHNGWTALHHASMGGYTQTMKVILDTNLKCTDRLDEDGNTALHFAAREGHAKAVALLLSHNADIVLNKQQASFLHLALHNKRKEVVLTIIRSKRWDECLKIFSHNSPGNKCPITEMIEYLPECMKVLLDFCMLHSTEDKSCRDYYIEYNFKYLQCPLEFTKKTPTQDVIYEPLTALNAMVQNNRIELLNHPVCKEYLLMKWLAYGFRAHMMNLGSYCLGLIPMTILVVNIKPGMAFNSTGIINETSDHSEILDTTNSYLIKTCMILVFLSSIFGYCKEAGQIFQQKRNYFMDISNVLEWIIYTTGIIFVLPLFVEIPAHLQWQCGAIAVYFYWMNFLLYLQRFENCGIFIVMLEVILKTLLRSTVVFIFLLLAFGLSFYILLNLQDPFSSPLLSIIQTFSMMLGDINYRESFLEPYLRNELAHPVLSFAQLVSFTIFVPIVLMNLLIGLAVGDIAEVQKHASLKRIAMQVELHTSLEKKLPLWFLRKVDQKSTIVYPNKPRSGGMLFHIFCFLFCTGEIRQEIPNADKSLEMEILKQKYRLKDLTFLLEKQHELIKLIIQKMEIISETEDDDSHCSFQDRFKKEQMEQRNSRWNTVLRAVKAKTHHLEP
B2: hTRPA1: N753Q (protein)
parent chain: B1 parent chain
B3: hTRPA1: N747/753Q (protein)
parent chain: B1 parent chain

experiment: fluorometric membrane depolarization, FlexStation; settings: glycan lost; control: wild type; AITC agonist

Row | Protein | other: agonist sensitivity, EC50
1 | B1 | decreases, 4.2 vs 1.8
2 | B2 | no change, 1.6 vs 1.8
3 | B3 | decreases, 3.0 vs 1.8

same assay, conditions: glycan lost; control: wild type; menthol agonist

Row | Protein | other: agonist sensitivity, EC50
4 | B1 | decreases, 68.9 vs 29.2
5 | B2 | no change, 34.4 vs 29.2
6 | B3 | decreases, 58.0 vs 29.2
